# The whole screen tested about 310,000 compounds, of which about 14,000 (4.5%) showed an effect of 50% or more. The effect is printed as a negative number. Some of the results follow.
# Target: human ether-à-go-go-related gene (hERG) potassium channel (human, UniProt Q12809)
# Assay: primary screen, population patch clamp on CHO cells stably expressing hERG
# 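Note: peak tail current of the secondary pulse compared with the same well before compound.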
# human ether-à-go-go-related gene (hERG) potassium channel, sequence (Q12809 whole entry, looked up): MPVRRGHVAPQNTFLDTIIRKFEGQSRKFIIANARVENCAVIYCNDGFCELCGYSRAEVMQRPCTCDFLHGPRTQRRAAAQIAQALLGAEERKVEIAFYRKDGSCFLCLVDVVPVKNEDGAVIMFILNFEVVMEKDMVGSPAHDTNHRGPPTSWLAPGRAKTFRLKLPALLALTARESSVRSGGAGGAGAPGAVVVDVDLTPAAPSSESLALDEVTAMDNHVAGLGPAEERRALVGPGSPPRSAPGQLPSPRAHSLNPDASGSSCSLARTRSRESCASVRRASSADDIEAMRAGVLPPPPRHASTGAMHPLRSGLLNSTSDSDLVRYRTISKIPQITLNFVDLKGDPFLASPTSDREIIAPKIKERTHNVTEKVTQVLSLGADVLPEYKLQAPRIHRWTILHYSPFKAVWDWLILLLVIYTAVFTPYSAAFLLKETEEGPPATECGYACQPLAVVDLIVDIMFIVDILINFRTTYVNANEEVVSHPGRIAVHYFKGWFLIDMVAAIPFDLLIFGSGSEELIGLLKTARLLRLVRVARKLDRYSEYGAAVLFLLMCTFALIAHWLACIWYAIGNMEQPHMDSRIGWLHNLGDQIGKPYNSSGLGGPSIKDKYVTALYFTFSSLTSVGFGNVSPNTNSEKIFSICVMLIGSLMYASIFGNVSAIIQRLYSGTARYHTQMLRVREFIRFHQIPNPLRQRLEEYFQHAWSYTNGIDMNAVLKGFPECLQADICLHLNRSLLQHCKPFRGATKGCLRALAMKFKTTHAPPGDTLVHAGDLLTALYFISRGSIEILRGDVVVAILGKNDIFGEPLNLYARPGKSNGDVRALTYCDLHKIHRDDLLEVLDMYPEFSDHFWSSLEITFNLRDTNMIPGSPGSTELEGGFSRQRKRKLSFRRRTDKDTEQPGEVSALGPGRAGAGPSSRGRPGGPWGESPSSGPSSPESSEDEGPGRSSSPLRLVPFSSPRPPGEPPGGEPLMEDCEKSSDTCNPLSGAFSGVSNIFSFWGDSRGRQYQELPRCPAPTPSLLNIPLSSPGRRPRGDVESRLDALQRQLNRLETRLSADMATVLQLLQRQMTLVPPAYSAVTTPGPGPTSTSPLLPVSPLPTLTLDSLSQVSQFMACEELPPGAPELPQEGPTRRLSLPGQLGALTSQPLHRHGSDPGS
row,SMILES,"hERG current change (%, negative = inhibition) at 10uM"
1,Cc1ccc(-n2nc3c(=O)n(C(C)C(=O)NCCc4cccs4)nc(C)c3c2C)cc1 (stereo not shown),-37.8%
2,O=C(Nc1nccs1)c1ccc([N+](=O)[O-])cc1,-1.65%
3,CCCCC(=O)Nc1ccc(C(=O)NN2C(=O)c3ccccc3C2=O)cc1,-2.92%
4,COc1ccc(N2CCN(C(=O)CCCNC(=O)Cn3cnc4sc(C)c(C)c4c3=O)CC2)cc1,-3.24%
5,CC(=O)Nc1ccc(NS(=O)(=O)c2ccc(C)cc2)cc1[N+](=O)[O-],19%
6,O=C(CNS(=O)(=O)c1cccc(Br)c1)NCC1CCCCC1,-1.42%
7,CCCC(=O)N1CCN(c2nnc(-c3ccc(C)cc3)c3ccccc23)CC1,-81.1%
8,COc1ccc([C@@H]2[C@@H]3C(=O)N(C(C)(C)C)C(=O)[C@@H]3[C@]3(C)C(=O)N(c4cccc(Br)c4)C(=O)N23)cc1,-0.523%
9,CCN(CC)c1nc(OCCNC(=O)Nc2ccccc2)nc(N(CC)CC)n1,1.53%
10,COc1ccc(NS(=O)(=O)c2cccs2)cc1S(=O)(=O)N1CCCCC1,-8.42%
11,CCCCN(C(=O)C(CCSC)N1C(=O)c2ccccc2C1=O)c1c(N)n(CCC)c(=O)[nH]c1=O (stereo not shown),8.96%
12,O=S(=O)(NC1CC2CCC1C2)c1ccc(Br)s1 (stereo not shown),-26.1%
13,CCN(CC)CCn1c2ccccc2c2nc3ccc([N+](=O)[O-])cc3cc21,8.26%
14,CC[C@@H](C)[C@H](NC(=O)OCc1ccccc1)c1nnc([C@@H](NC(=O)OCc2ccccc2)[C@@H](C)CC)o1,-3.65%
15,CCCC(=O)Nc1cc(C)c(NC(=O)C23CC4CC(CC(C4)C2)C3)cn1,-10%
16,O=C(c1cc(-c2ccc(F)cc2)on1)N1CCN(c2ccc(F)cc2)CC1,0.323%
17,C#CCOCCOCCOCCNc1nc(N2CCN(C(=O)[C@H]([C@@H](C)CC)n3cc([C@@H](N)Cc4ccc(O)cc4)nn3)CC2)nc(N2CCN(C(=O)[C@H](Cc3ccc(O)cc3)n3cc([C@@H](N)CC(C)C)nn3)CC2)n1.Cl,5.43%
18,CCN(C(=O)c1cc(Cl)ccc1OC)c1ccccc1C,-3.46%
19,O=C(O)C1=C[C@H](c2ccc3c(c2)OCO3)C[C@H](OCCCCO)O1,9.18%
20,CCc1nnc(SCC(=O)Nc2ccc3c(c2)OCO3)o1,21.7%
21,O=C(COC(=O)Cc1c(Cl)cccc1Cl)NCC1CCCO1 (stereo not shown),9.58%
22,CC1CCC(CN2C(Nc3ccccc3)=NC[C@@H]2C)CC1 (stereo partly shown),-9.6%

row,SMILES,"hERG current change (%, negative = inhibition) at 10uM"
1,CC(NC(=O)C(C(=O)c1cccc([N+](=O)[O-])c1)n1cc(Cl)ccc1=O)c1ccccc1 (stereo not shown),-15%
2,Cc1cccnc1NC(=O)c1ccc(COc2ccccc2)o1,3.37%
3,Cn1cccc1/C=N/NC(=O)CNc1ccc2ccccc2c1,8.73%
4,S=C(NCc1ccccc1)Nc1ccc2ccccc2c1,12.4%
5,CC(=O)N[C@@H](Cc1c[nH]c2ccccc12)C(=O)NCCc1ccc(S(N)(=O)=O)cc1,11%
6,O=C(CC12CC3CC(CC(C3)C1)C2)NCc1ccccc1,15%
7,Fc1ccc(CSc2ccc(-c3ccco3)nn2)cc1,12.4%
8,Cc1ccc(NC(=S)NCc2ccccc2)cc1[N+](=O)[O-],-2.6%
9,Cc1ccc2cc(C#N)c(N3CCN(C(=O)c4ccccc4)CC3)nc2c1,-67.1%
10,CS(=O)(=O)N1CCC(C(=O)Nc2ccc3c(c2)OCO3)CC1,-7.81%
11,COc1ccc(CCN(C)C(=S)Nc2ccc(SC(F)F)cc2)cc1OC,-74.7%
12,CC(C)(C)OC(=O)NCCCCCc1cn([C@@H](CO)C(=O)NCCCCCCCCCCC(=O)N2CCN(C(=O)OC(C)(C)C)CC2)nn1,-2.09%
13,CN(CC(=O)Nc1cccc(F)c1)C(=O)c1ccc2c(=O)n3c(nc2c1)CCC3,14.9%
14,CCc1ccc(NC(=O)C(=O)N/N=C(\C)CC(=O)NCc2ccc(Cl)cc2)cc1,-11.4%
15,CN(C)c1ccc(NC(=O)/C=C/c2c(Cl)cccc2Cl)cc1,4.91%
16,Cc1ccc(S(=O)(=O)N(CC(=O)N2CCC(C)CC2)Cc2ccccc2F)cc1,-36.5%
17,CCOC(=O)c1nnn(-c2nonc2N)c1-c1ccc(OCC)cc1,-9.25%
18,COc1cc(OC)c(NS(=O)(=O)c2coc(C(N)=O)c2)cc1Cl,13.5%
19,CC(C)(C)C1CCC(C(=O)NCC(c2cccs2)N2CCOCC2)CC1 (stereo not shown),-9.21%
20,CC(C)[C@H](NC(=O)c1ccccc1F)C(=O)Nc1ccc(F)c(F)c1,8.12%
21,CC(=O)O[C@]1(C(C)=O)CC[C@H]2[C@@H]3C=C(C)C4=CC(=O)CC[C@]4(C)[C@H]3CC[C@@]21C,-10.8%
